Results from PMC6919601, “Identification of Plasmodium dipeptidyl aminopeptidase allosteric inhibitors by high throughput screening” (PLoS ONE, 2019).
Hit rate of the full screen: of about 110,000 compounds, about 230 (0.21%) showed an effect of 50% or more. The list shows a part of the results.

The molecules below were run against DPAP1 (Plasmodium falciparum, UniProt Q8IIJ9) (assay: primary screen, percent inhibition; read by cleavage of a fluorogenic dipeptide substrate; higher = more effect of the substance).
Parameters: species or system P. falciparum D10 trophozoite lysates; single well
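Also: 30 min substrate incubation versus DMSO and 10 µM JCP410 controls.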

Sequence of DPAP1 (Q8IIJ9 whole entry, looked up): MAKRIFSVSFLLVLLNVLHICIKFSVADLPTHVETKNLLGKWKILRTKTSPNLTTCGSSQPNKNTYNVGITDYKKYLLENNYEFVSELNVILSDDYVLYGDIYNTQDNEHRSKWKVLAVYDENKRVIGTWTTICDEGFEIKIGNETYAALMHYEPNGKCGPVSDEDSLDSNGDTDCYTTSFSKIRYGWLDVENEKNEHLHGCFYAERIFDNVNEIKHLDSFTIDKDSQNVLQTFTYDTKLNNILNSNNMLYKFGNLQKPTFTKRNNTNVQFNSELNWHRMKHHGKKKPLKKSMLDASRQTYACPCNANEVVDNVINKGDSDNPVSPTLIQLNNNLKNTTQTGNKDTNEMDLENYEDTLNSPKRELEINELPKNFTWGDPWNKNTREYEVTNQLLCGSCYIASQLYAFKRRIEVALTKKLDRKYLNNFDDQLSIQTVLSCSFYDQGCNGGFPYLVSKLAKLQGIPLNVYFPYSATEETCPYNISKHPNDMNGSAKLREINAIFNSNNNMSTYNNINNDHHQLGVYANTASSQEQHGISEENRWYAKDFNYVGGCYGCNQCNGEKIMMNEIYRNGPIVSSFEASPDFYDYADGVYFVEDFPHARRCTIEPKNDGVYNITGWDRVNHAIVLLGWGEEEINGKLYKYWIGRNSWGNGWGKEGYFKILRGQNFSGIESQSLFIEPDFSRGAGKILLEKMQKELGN

Row | SMILES | % Inhibition @ 10 uM
1 | CCCCCCN1C(=O)NC(=O)/C(=C\c2ccc(OC)cc2)C1=O | 1.08%
2 | O=C(NCc1ccco1)C(c1ccccc1)c1ccccc1 | 0.431%
3 | CN(CCCn1cnc2c3cc(Cl)ccc3nc-2c1O)C1CCCCC1 | -3.75%
4 | CC(=O)N1N=C(c2ccc(C)c(Cl)c2)OC12CCCC2 | 2.38%
5 | O=C(NCc1cccnc1)c1cc2ccc3cccnc3c2[nH]1 | -5.57%
6 | CCCN1CCC(NCCc2ccccc2OC)CC1 | -4.14%
7 | CC(=O)N1CCC2(CC1)OC(=O)C(C)=C2C(=O)NCCC(C)C | -1.04%
8 | CC(C)C[C@H](NC(=O)OCC1COc2ccccc2O1)C(=O)NCC#N (some centres unmarked) | -6.46%
9 | O=C(COc1ccc(Cl)cc1)NCCN1CCCC1 | -1.82%
10 | CC(C)Oc1ccc(C2CC(=O)N(c3ccccc3)C2=O)cc1 (centres unmarked) | -2.37%
11 | CCn1c(C)nc2c1C(=O)c1ccccc1C2=O | 1.63%
12 | N#Cc1cc([N+](=O)[O-])cnc1SCC(=O)Nc1ccccc1 | 0.0345%
13 | O=C(Nc1cccc(Cl)c1)N(Cc1ccccc1)Cc1ccccc1 | -2.56%
14 | Cc1cc2c(cc3c(=O)n(CC(=O)NCc4ccccc4)ncn32)o1 | 4.95%
15 | COc1ccc(-c2noc(CN(C(=O)Cc3ccc(Cl)cc3)C(C)C)n2)cc1 | -1.84%
16 | COc1cccc(-c2cc(C(=O)N3CCN(C(=O)c4ccco4)CC3)on2)c1 | 2.19%
17 | COc1ccc(-c2ccc3c(N)c(C(=O)Nc4ccc5c(c4)OCCO5)sc3n2)cc1 | -3.58%
18 | CCOc1ccc(CNC(=O)c2cc(O)nc3ccc(Br)cc23)cc1OC | 3.24%
19 | O=C(c1sc2cc(Cl)ccc2c1Cl)N1CCCC1 | 1.37%
20 | COc1cc(/C=N/N=C(\C)c2nnn(-c3nonc3N)c2C)ccc1O | -1.68%
21 | COc1ccc(Cl)cc1C(=O)Nc1sc2c(c1C#N)CCC2 | -4.76%
22 | CCOc1ccccc1N(CC(=O)N1CCN(c2ccccc2)CC1)S(=O)(=O)c1ccc(C)cc1 | 6.86%
23 | Cc1ccc(OCc2nc(-c3ccc(C(=O)NC4CCCC4)cc3)oc2C)cc1 | -5.73%
24 | CC(=O)c1c(C)oc2c1cc(NS(=O)(=O)c1ccc(Cl)cc1)c1ccccc12 | 4.08%
25 | COc1ccc(CCN(C)CC(=O)Nc2cc(C)nc3ccccc23)cc1OC | -5.47%
26 | COc1ccccc1N1CCN(C(=O)c2ccc([N+](=O)[O-])cc2)CC1 | -1.38%

Row | SMILES | % Inhibition @ 10 uM
27 | Clc1ccc(-c2ncnn2-c2ccc(Br)nc2)c(Cl)c1 | 5%
28 | COCCCNC(=O)C1Sc2nnc(-c3ccccc3)n2NC1c1ccccc1 (centres unmarked) | 1.72%
29 | Cc1ccc(N2CCN(c3ccc(C)cc3)C(CC(=O)O)C2=O)cc1 (centres unmarked) | -3.52%
30 | Cc1ccc(C(CC(=O)N2CCC3(CC2)OCCO3)N2Cc3ccccc3C2=O)cc1 (centres unmarked) | 0.796%
31 | Oc1ncnc(O)c1C(c1ccc(Cl)cc1)c1c(O)ncnc1O | -7.58%
32 | Cc1[nH]nc2c1C1(C(=O)Nc3ccc(Br)cc31)C(C#N)=C(N)O2 (centres unmarked) | 4.08%
33 | CC1CCCCN1C1CCN(CCc2ccccc2)CC1 (centres unmarked) | -0.603%
34 | CCOc1cc(C2NCCc3cc(OC)c(OC)cc32)ccc1O (centres unmarked) | -1.79%
35 | Cc1sc(C2C(C#N)=C(N)OC3=C2C(=O)CCC3)cc1COc1ccc(F)cc1Cl (centres unmarked) | 0.385%
36 | Cn1c(=O)c2nc(NCc3ccco3)[nH]c2n(C)c1=O | -2.98%
37 | COc1ccc(OC)c(CCNC(=O)COCc2cc(-c3ccc(F)cc3)on2)c1 | -3.25%
38 | OC1(c2ccc(Cl)cc2)CCN(Cc2ccc(F)cc2F)CC1 | -0.0648%
39 | CN(C)CCN(C(=O)CCS(=O)(=O)c1ccccc1)c1nc2ccc(Cl)cc2s1 | 0.693%
40 | O=S(=O)(c1cc(Br)c(Br)s1)N1CCN(Cc2ccccc2)CC1 | -4.16%
41 | Cc1cc(=O)n2nc(N(C)CC(=O)NC3CCCc4ccccc43)sc2n1 (centres unmarked) | 1.38%
42 | CCc1ccc2nc(N3CCC(C(=O)NC4CC4)CC3)sc2c1 | -7.29%
43 | CCC(CO)NC(=O)c1ccc(-c2nn(C)c(=O)c3ccccc23)cc1 (centres unmarked) | -3.23%
44 | CC(C)N(Cc1ccccc1)S(=O)(=O)c1ccc(CCN2C(=O)c3cccnc3C2=O)cc1 | -0.571%
45 | O=c1c2ccccc2ncn1Cc1ccc(Cl)cc1 | 0.121%
46 | COc1ccc(N2C(=O)/C(=C\c3c(OC)ccc4ccccc34)C(=O)NC2=S)cc1 | 2.65%
47 | COc1ccccc1OC(C)C(=O)Nc1noc2ccccc12 (centres unmarked) | -2.85%
48 | O=c1nc(-c2ccccc2)sc2ccccc12 | -2.35%
49 | O=C(O)CCCN1CNC(=S)NC1 | -15.6%
50 | COc1ccc(Cl)cc1C(=O)Nc1nc2c(s1)C(=O)CC(C)(C)C2 | 4.64%
51 | Cc1ccc(C(C)NC(=O)Cc2ccccc2)cc1 (centres unmarked) | -1.5%
52 | CCOc1c(CNCCCSc2nnnn2C)cccc1OC | -1.11%

Row | SMILES | % Inhibition @ 10 uM
53 | CCOc1cc(C2CC(=O)NC(SCC(N)=O)=C2C#N)ccc1O (centres unmarked) | 5.05%
54 | CCCc1ccc(OCc2ccc(C(=O)Nc3cccc(C)n3)o2)c(OC)c1 | 0.413%
55 | CCOc1cc(C2c3c(oc4ccc(F)cc4c3=O)C(=O)N2CCc2ccc(OC)cc2)ccc1O (centres unmarked) | -5.38%
56 | CCn1cc(C(=O)NCc2ccc(C)o2)c2cc(OC)c(OC)cc2c1=O | 2.73%
57 | Cc1ccc(-c2cc(C(=O)N3N=C(C(F)F)CC3(O)C(F)F)c3ccccc3n2)o1 (centres unmarked) | -1.88%
58 | Cn1c(NC(=O)c2cc(-c3cccc(Br)c3)nc3ccccc23)cc(=O)n(C)c1=O | -0.883%
59 | COC(=O)CCC(=O)Nc1ccc([N+](=O)[O-])cc1 | -6.52%
60 | COc1cccc(CN2CCN(Cc3ccccc3)CC2)c1OC | 0.605%
61 | COC(=O)C1=CN(C(C)C)C=C(C(=O)OC)C1c1ccc(OC)cc1 | -3.23%
62 | CC1CC(C)CN(CC(O)COC2CC(C)CC(C)(C)C2)C1 (centres unmarked) | -4.56%
63 | Cn1c(=O)c(C(=O)Nc2ccccc2)c(O)c2ccccc21 | -1.96%
64 | Cc1ccc(/C=c2/sc3nc(/C=C/c4ccc(Cl)cc4)nn3c2=O)o1 | 10.7%
65 | COc1ccc(-c2cc3nc(C)c(CCC(=O)Nc4cccc(C)n4)c(C)n3n2)c(OC)c1 | -2.25%
66 | CC(C)Oc1ccc(C2=CC(=O)NC2=O)cc1 | -2.55%
67 | COc1cc(C2Nc3ccc4ncccc4c3C3=C2C(=O)CC(C)(C)C3)cc(OC)c1O (centres unmarked) | -1.44%
68 | COc1cc2c(cc1OC)C1(CCCCC1)CNC2CCc1ccccc1 (centres unmarked) | 4.22%
69 | COc1cc(C2C=C(Nc3ccccc3)C(=O)N2c2ccccc2)ccc1O (centres unmarked) | 1.64%
70 | CC1CCCCN1CCNC(=O)c1cnn2ccccc12 (centres unmarked) | -8.42%
71 | CCCc1nnc(NC(=O)C(CC)Sc2nnnn2-c2ccccc2)s1 (centres unmarked) | 0.484%
72 | Cc1nnc2sc(-c3cccnc3)nn12 | 0.635%
73 | COc1ccc2c(c1)c(C(C)=O)c(C)n2-c1cccc2ccccc12 | 1.39%
74 | Cc1nn(CC(=O)NCCCOC(C)C)c(=O)c2nn(-c3ccccc3)c(C)c12 | 7.67%
75 | CCN(Cc1ccccc1)S(=O)(=O)c1cc(Cl)ccc1Cl | -3.44%
76 | COc1cccc(C(=O)Nc2ccc(NC(=O)c3ccc(C)cc3)cc2)c1 | -3.66%
77 | Cc1ccc(-c2cc(-c3ccccc3)c(C#N)c(SCC(N)=O)n2)cc1 | -2.89%
78 | CCOc1ccc(-c2csc(-c3cc4ccccc4oc3=O)n2)cc1 | 2.24%

Row | SMILES | % Inhibition @ 10 uM
79 | COc1cccc(CNc2nc3ccccc3c3nncn23)c1 | 1.49%
80 | COc1ccccc1NC(=O)c1sc2nc3c(cc2c1N)CCCCC3 | 1.92%
81 | Cc1cc(/C=C\c2ccccc2)c(C#N)c(S)n1 | 33.7%
82 | CC(=O)C12CCCCC1CC1C3CC(C)[C@@]4(O)CC(=O)CCC4(C)C3CCC12C (some centres unmarked) | 2.58%
83 | COC(=O)Nc1nc2ccccc2n1Cc1ccc(F)cc1 | -3.04%
84 | CC1CCN(S(=O)(=O)c2ccc(NC(=O)c3ccccc3Br)cc2)CC1 | -1.17%
85 | O=C(C1CC(c2ccccc2F)=NO1)N1CCCCC1 (centres unmarked) | 2.85%
86 | CCC(=O)NC1CCC(CC2CCC(NC(=O)CC)CC2)CC1 (centres unmarked) | -7.08%
87 | O=C(NCCc1ccccc1)C1CCN(C(=O)c2cnn(-c3ccccc3)c2-n2cccc2)CC1 | 3.4%
88 | O=C(CSc1nc[nH]n1)Nc1ncccn1 | 6.51%
89 | CCCCCCCc1c(C)nn(-c2nnc3c(n2)[nH]c2ccccc23)c1O | -2.42%
90 | CC(C)N(CCC#N)S(=O)(=O)c1cccc2nsnc12 | -1.69%
91 | CC(NC(=O)c1ccccc1)c1ccc2c(c1)OCCCO2 (centres unmarked) | 3.8%
92 | CCOC(=O)N1CCC(NCc2ccc(Cl)c(Cl)c2)CC1 | 1.57%
93 | CCOC(=O)c1oc2cc(O)c(CC)cc2c(=O)c1-c1ccc2c(c1)OCCO2 | -1.11%
94 | O=c1cc(COc2cc(Cl)ccc2Cl)nc2scc(-c3ccccc3)n12 | -8.66%
95 | COc1cccc(CNC(=O)c2nnn(-c3ccc(OC(F)(F)F)cc3)c2N)c1 | 5.12%
96 | Cc1ccccc1N1CC(C(=O)NC(C)C)CC1=O (centres unmarked) | 10%
97 | O=C(NCC1CCCO1)c1cc(-c2ccncc2)nc2ccccc12 (centres unmarked) | -6.16%
98 | CNc1ccc(Cl)cc1C(NC(N)=O)c1ccccc1 (centres unmarked) | -5.16%
99 | CCc1ccc(OCC(=O)Nc2ccc(Cl)cn2)cc1 | 0.512%
100 | NS(=O)(=O)c1ccc(CCNC(=O)Cn2c(SCc3ccc(F)cc3)nc3cccnc32)cc1 | 7.46%
101 | COc1cccc(C2C=C(c3ccc(C)cc3)Nc3nnnn32)c1OC (centres unmarked) | 0.0842%
